Assay results published in the RNAGym collection of RNA variant scans (doi:10.7554/elife.90254).
The source gives no read counts; variants with many changes may rest on few reads.

B1: LINE1-mini (parent)
chain: GGCAGAGCUCAACACAGCGUGGCAAAGUGGCUGUGGCUAGACUGCC

Variants of: B1
Assay: self-cleavage, relative activity (ratio to wild type); higher = more cleavage; in vitro, sequencing; the parent is a self-cleaving ribozyme

| Variant | self-cleavage |
| --- | --- |
| A4C U28A G36C C45G | 0.11 |
| A4G C8U U20C C31U U38A | 0.11 |
| A4G G5A G33A | 0.16 |
| A4G C23G A24C C45A | 0.21 |
| A4C G30U U34G A41C C45G | 0.11 |
| A4G C15A G35U C46G | 0.04 |
| A4G C10U G29A U38C A41U | 0.04 |
| A4G A6U U43A C45A | 0.09 |
| A4G A6C G29U C37U | 0.11 |
| A4C U9G C13U G36U C46U | 0.04 |
| A4G A14U U20A G44A | 0.01 |
| A4G A6U G29C G30A G40A | 0.2 |
| A4G C8A A16G G33A G35C G40C | 0.02 |
| A4C G27U C37U | 0.13 |
| A4G A12C C15A G19U U20C C31A | 0.01 |
| A4G C8U A16U A39C G44A | 0.08 |
| A4C G27A G36C C42A | 0.18 |
| A4G C8G U9G C10G G29A C42G | 0.01 |
| A4G C10A U20A | 0.06 |
| A4C G21C G36C | 0.02 |
| A4G C8G C31G | 0.06 |

| Variant | self-cleavage |
| --- | --- |
| A4G C23A A39U C46G | 0.06 |
| A4C U9C G29C | 0.04 |
| A4G C10A U20A C37U | 0.02 |
| A4C U38G C42A | 0.07 |
| A4G C8G A25G U28C G29C | 0.01 |
| A4G A12G U32A | 0.08 |
| A4G A39G C46A | 0.01 |
| A4G A12C G29A C42U | 0.12 |
| A4G A25C U43A C45A | 0.02 |
| A4G A6U G30U | 0.45 |
| A4C U9G G44U | 0.03 |
| A4C U9C C13G C15U G17C U20G | 0.01 |
| A4C G29U C37U A41C | 0.03 |
| A4G C10U A25C C31A U34G | 0.05 |
| A4C G27C G40C | 0.09 |
| A4G C18A G19U | 1.06 |
| A4C G22U A41U | 0.56 |
| A4C G29A C46U | 0.47 |
| A4G G5A C10A G21A | 0.09 |
| A4G C15U G21C A26G | 0.49 |
| A4G C8G G17A C31A U34C | 0.02 |

| Variant | self-cleavage |
| --- | --- |
| A4C U28A U32C G33U | 0.03 |
| A4G C15A C18A | 0.04 |
| A4G C18U G21A G35A G36C | 0.18 |
| A4C G22A C31U | 0.08 |
| A4C U9G U20C C42G | 0.03 |
| A4G A26C C45G | 0.31 |
| A4G C37U C46A | 0.04 |
| A4C U28A C37A C46G | 0.04 |
| A4G A16U G17A A25C C46G | 0.04 |
| A4G G5A G27C U32A | 0.05 |
| A4C G33C G36C A39C | 0 |
| A4G C31U A39U | 0.03 |
| A4G C15A C31A G35A C46A | 0.06 |
| A4G C13G G17C U20A G22C G33A G36A C37A | 0.02 |
| A4C U9C C10A A11U C13A G17C U28G U34C G35A | 0.01 |
| A4C G29A G30U G35C | 0.74 |
| A4G C15A G30A C37G C45A | 0.02 |
| A4G C18G U28A G36C U43A | 0.04 |
| A4G A11G G35A | 0.02 |
| A4G A6G C23U G27U G40U | 0.06 |
| A4G C8U A12C C45A | 0.02 |

| Variant | self-cleavage |
| --- | --- |
| A4G A24C U32G | 0.02 |
| A4G C23A A41U | 0.5 |
| A4C G21A A24C G30A | 0.03 |
| A4C G17U U32A G33A | 0.1 |
| A4G C8A A14C G21A G30A C46A | 0.11 |
| A4C G21U U38A A39G C42G | 0.03 |
| A4G A16G U38C | 0.02 |
| A4C G19U U34A | 0.03 |
| A4G C8G G22A | 0.02 |
| A4G A11C A14U U20C | 0.07 |
| A4G A16G G22U C45U | 0.88 |
| A4C G36U U43A | 0.35 |
| A4G C13G G30A U38G | 0.02 |
| A4G A6G C10U A25C | 0 |
| A4G C23G A24G G40U | 0.07 |
| A4G C8U G30U C37U C42G | 0.15 |
| A4G C8U C23U G30C C42U | 0.33 |
| A4G C15U G22U C23A C31G | 0.11 |
| A4G C10A C42G | 0.09 |
| A4G C8A U20G C23U G27C C37G C45U | 0 |
| A4G A11G G19A A25C U38A A39C | 0 |
